Test results published in a compilation of properties of binary mixtures (doi:10.1016/j.cjche.2019.04.016).
Some of these densities may be calculated back from excess volumes.

Assay: xn = mol fraction of the nth substance listed
Conditions: 100 kPa

CCCC[n+]1ccn(C)c1.F[B-](F)(F)F + CCCC[n+]1ccn(C)c1.[Cl-]
mass density (303.15 K, x1 = 1): 1196.1 kg/m3
mass density (308.15 K, x1 = 1): 1192.6 kg/m3
mass density (313.15 K, x1 = 1): 1189 kg/m3
mass density (323.15 K, x1 = 1): 1182 kg/m3

CCCC[n+]1ccn(C)c1.[Cl-] + CCCC[n+]1ccn(C)c1.F[B-](F)(F)F
mass density (303.15 K, x2 = 0.1989): 1105.8 kg/m3
mass density (303.15 K, x2 = 0.5003): 1141.7 kg/m3
mass density (303.15 K, x2 = 0.667): 1160.7 kg/m3
mass density (303.15 K, x2 = 0.8003): 1175.7 kg/m3
mass density (308.15 K, x2 = 0): 1077.4 kg/m3
mass density (308.15 K, x2 = 0.1989): 1102.8 kg/m3
mass density (308.15 K, x2 = 0.3321): 1119.1 kg/m3
mass density (308.15 K, x2 = 0.667): 1157.4 kg/m3
mass density (308.15 K, x2 = 0.8003): 1172.3 kg/m3
mass density (313.15 K, x2 = 0): 1074.6 kg/m3
mass density (313.15 K, x2 = 0.1989): 1099.9 kg/m3
mass density (313.15 K, x2 = 0.667): 1154.1 kg/m3
mass density (313.15 K, x2 = 0.8003): 1168.8 kg/m3
mass density (318.15 K, x2 = 0): 1071.8 kg/m3
mass density (318.15 K, x2 = 0.1989): 1096.9 kg/m3
mass density (318.15 K, x2 = 0.3321): 1112.9 kg/m3
mass density (318.15 K, x2 = 0.5003): 1132.1 kg/m3
mass density (318.15 K, x2 = 0.667): 1150.7 kg/m3
mass density (323.15 K, x2 = 0.1989): 1093.9 kg/m3
mass density (323.15 K, x2 = 0.5003): 1128.9 kg/m3
mass density (323.15 K, x2 = 0.667): 1147.4 kg/m3
